# Experimental data published in patent US20230293647A1.
# pKd: −log10 of the molar value.
# What was measured:
# [1] = target: Angiotensin II (UniProt P01019); experiment: SPR, ACE2-Fc captured on Protein A, angiotensin II as analyte, 1:1 Langmuir fit
# [2] = target: Angiotensin II (UniProt P01019); experiment: SPR, 1:1 binding kinetic model
substance,measurement,setting,value
Inactive ACE2 (HH:NN) ([…])-Fc (chain not printed) (Fc fusion),pKd,[1],5.89
same,koff,[1],0.18 s⁻¹
same,kon,[1],138000 M⁻¹ s⁻¹
same,fold reduction in affinity against active ACE2-Fc,[2],11 fold
